{"source": "PubChem BioAssay AID938", "about": "(National Center for Advancing Translational Sciences (NCATS), 2007)", "note": "The campaign covered roughly 73,000 compounds. About 1,800 (2.5%) were called active. This list was built around the results that the source calls inconclusive (neither active nor inactive); the mix of calls is not that of the screen. Calls come from the whole dose curve; as a rule, active = well fitted activation curve with a large enough effect; inconclusive = small, poorly fitted or top-dose-only effect; inactive = no such curve, though single readings can be large or run the other way. Potencies of inconclusive entries are left out as doubtful fits. Potency is the fitted concentration of half-maximal effect; tags give direction and shape of the fitted curve."}
{"test": "qHTS Assay for Agonists of the Thyroid Stimulating Hormone Receptor: Activators of Intracellular cAMP Concentrations in Parental HEK 293; note: nearly all actives have a fitted effect of over 55% in size; for activation: % of control where 0% means no effect", "details": "parental HEK293 CNG cAMP sensor, membrane potential fluorescence; activation: at 57.1 µM (top of the series) unless noted", "outline": "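Counterscreen for endogenous-receptor signalling: CNG-channel HEK 293 cells report cAMP rise by membrane depolarization. After 60 min dye equilibration with 100 uM RO 20-1724, compounds incubated 30 min before bottom-read fluorescence at 590 nm.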"}
{"smiles": "N#CC1=C(N)C(C#N)(C#N)C(c2cccnc2)C2COCC=C12", "note": "(configuration not stated)", "Potency": "inconclusive [activator, single point]"}
{"smiles": "Cc1ccc(-c2noc(CCC(=O)NCCCN3CCN(c4ccc(F)cc4)CC3)n2)cc1", "Potency": "inconclusive [activator, full curve, poor fit]"}
{"smiles": "COc1ccccc1-c1c(C)nn2c(N3CCN(c4ccccc4OC)CC3)cc(C)nc12", "Potency": "inconclusive [activator, partial curve, poor fit]"}
{"smiles": "CCOc1cc(NC(=O)c2ccco2)c(OCC)cc1NC(=O)COc1ccccc1", "Potency": "inconclusive [activator, single point]"}
{"smiles": "Cn1c(CCCNC(=O)c2cccs2)nc2ccccc21", "Potency": "inconclusive [activator, single point]"}
{"smiles": "CCCn1c(-c2ccc(F)cc2)nc2c(N(C)CCN(C)C)nc(C)nc21", "Potency": "inconclusive [activator, partial curve]"}
{"smiles": "Cc1ccc2c(c1C)NC(C(=O)O)C1CC=CC21", "note": "(configuration not stated)", "activation": "inactive: -2.08%"}
{"smiles": "O=C(C1CC1)N1CCc2cc(Br)cc(S(=O)(=O)N3CCCCCC3)c21", "Potency": "inconclusive [activator, single point]"}
{"smiles": "COc1ccc(Cl)cc1NC(=O)CSc1nnc(COc2ccccc2)n1C", "Potency": "inconclusive [activator, single point]"}
{"smiles": "Cc1cc(C)n2nc(SCC(=O)Nc3ccc(F)cc3)nc2n1", "activation": "inactive: 7.1%"}
{"smiles": "CC(C)NC(=O)CSc1nc2ccccc2n1-c1ccccc1", "Potency": "inconclusive [activator, single point]"}
{"smiles": "O=C1C[C@H](c2ccccc2)[C@@H](c2ccc(Br)cc2)O1", "activation": "inactive: 10.5% [at 11.4 µM]"}
{"smiles": "COc1ccc2nc3oc(C(=O)N4CCN(c5ccccc5F)CC4)cc3cc2c1", "Potency": "inconclusive [activator, single point]"}
{"smiles": "C[C@@H]1Cc2ccccc2N1NC(=O)c1ccc(Cl)c(S(N)=O)c1", "note": "(some centres not stated)", "activation": "inactive: -2.12% [at 25.6 µM]"}
{"smiles": "COc1ccc(OC)c(Nc2cc(C)nc3ccccc23)c1", "Potency": "inconclusive [activator, single point]"}
{"smiles": "c1ccc(-c2nnc(SCc3nc4ccccc4[nH]3)n2Cc2ccco2)nc1", "Potency": "inconclusive [activator, partial curve]"}
{"smiles": "O=C(CCN1CCCCC1)c1ccc2c(c1)OCCO2", "activation": "inactive: 2.55%"}
{"smiles": "CC(C)(C)n1nnnc1C(c1cccc(C#N)c1)N1CCC(Cc2ccccc2)CC1", "note": "(configuration not stated)", "Potency": "inconclusive [activator, partial curve]"}
{"smiles": "c1ccc(-n2c(SCc3nc(-c4cccs4)no3)nnc2-c2ccco2)cc1", "Potency": "inconclusive [activator, single point]"}
{"smiles": "COC(=O)c1ccc(C(NC(=O)OCc2ccccc2)/C(C)=C/[C@@H](C)C(=O)NC2CCCCC2)cc1", "note": "(some centres not stated)", "Potency": "active: 15.8 µM"}
{"smiles": "COC(=O)C1C(=O)c2c([nH]c(C(=O)OC3CCCCC3)c2C)CC1C", "note": "(configuration not stated)", "Potency": "inconclusive [activator, full curve]"}
{"smiles": "O=C(O)CCSCc1ccc(I)cc1", "activation": "inactive: 27.6% [at 11.4 µM]"}
{"smiles": "Cc1ccc(C)n1-n1cnc2scc(-c3cccs3)c2c1=O", "Potency": "inconclusive [activator, single point]"}
{"smiles": "N#Cc1cccc(NC(=O)N2CCC3(CC2)CCN(C(=O)c2ccco2)CC3)c1", "activation": "inactive: -1.81%"}
{"smiles": "Cc1ccsc1-c1nc(CSCC(=O)N2CCN(c3ccccc3)CC2)c(C)o1", "Potency": "inconclusive [activator, single point]"}
{"smiles": "Cc1nn(C)c(C)c1S(=O)(=O)N(CC(=O)Nc1nccs1)c1ccc(C(C)C)cc1", "activation": "inactive: 9.44%"}
{"smiles": "CCn1c(CCNC(=O)c2cccs2)nnc1SCC(=O)c1ccc(OC)cc1", "activation": "inactive: 0.956%"}
{"smiles": "COc1ccc(CNc2nc(-c3cccc(NS(C)(=O)=O)c3)nc3ccccc23)c(OC)c1", "Potency": "inconclusive [activator, single point]"}
{"smiles": "COc1ccc(CCN2C(=O)c3cccnc3C2=O)cc1OC", "activation": "inactive: 3.45%"}
{"smiles": "O=C(Nc1ccc(N2CCN(C(=O)c3ccc(Cl)cc3)CC2)cc1)c1ccc(Br)o1", "activation": "inactive: -13.2%"}
{"smiles": "COCC(=O)N1CCC2(CC1)CN(C(=O)Nc1cccc(C#N)c1)C2", "activation": "inactive: -4.49%"}
{"smiles": "Cc1nc(NCc2ccccc2)c2nc(-c3ccccc3)n(CCCN3CCCCC3C)c2n1", "note": "(configuration not stated)", "activation": "inactive: -18.5%"}
{"smiles": "COc1ccc2[nH]c(=O)c(CN(Cc3ccc4c(c3)OCO4)C(C)=O)cc2c1", "Potency": "inconclusive [activator, single point]"}
{"smiles": "COC(=O)Nc1ccc(S(=O)(=O)N2CCCc3ccccc32)cc1", "Potency": "inconclusive [activator, single point]"}
{"smiles": "COc1ccc(-n2c(SCc3nnc(-c4ccccc4)o3)nnc2-c2ccccc2)cc1", "Potency": "active: 20 µM"}
{"smiles": "COc1cccc(Cn2c(=O)c(C)nc3cnc(N(C)C)nc32)c1", "Potency": "inconclusive [activator, full curve]"}
{"smiles": "CCOC(=O)OCC", "activation": "inactive: 2.49%"}
{"smiles": "Cc1c(N2C(=O)c3ccccc3C2=O)c(=O)n(-c2ccccc2)n1C", "Potency": "inconclusive [activator, single point]"}
{"smiles": "C=C(C)COc1ccc2c(C)c(CC(=O)OC)c(=O)oc2c1C", "Potency": "inconclusive [activator, single point]"}
{"smiles": "COC(=O)CCC(=O)Nc1ccc(S(=O)(=O)N2CCCCCC2)cc1", "Potency": "inconclusive [activator, single point]"}
{"smiles": "CCOC(=O)N1CCC(NC(=O)Cn2ncn3c(cc4sc(CC)cc43)c2=O)CC1", "activation": "inactive: 3.18%"}
{"smiles": "COc1ccc(Cl)cc1-c1nc(-c2ccc(Br)o2)no1", "Potency": "inconclusive [activator, single point]"}
{"smiles": "Cc1ccc2cccc(NC(=O)c3ccc(Br)o3)c2n1", "Potency": "inconclusive [activator, single point]"}
{"smiles": "CCCCOc1ccc(-c2ncc(Cl)cn2)cc1", "activation": "inactive: -3.15% [at 11.4 µM]"}
{"smiles": "CN1CCc2cc(Cl)c(O)cc2[C@H](c2ccccc2)C1", "activation": "inactive: 19.6%"}
{"smiles": "C=CCOc1ccccc1/C=N/O", "Potency": "active: 25.1 µM"}
{"smiles": "CCOc1ccc2[nH]c(=O)c(CN(Cc3nnnn3Cc3ccccc3)CC3CCCO3)cc2c1", "note": "(configuration not stated)", "Potency": "inconclusive [activator, single point]"}
{"smiles": "Cc1ccc(-c2noc(CSc3nnc(-c4ccccc4)n3C)n2)cc1", "Potency": "inconclusive [activator, single point]"}
{"smiles": "Cc1ccc(-c2nc(CS(=O)(=O)CC(=O)N3CC(C)CC(C)C3)c(C)o2)cc1", "note": "(configuration not stated)", "Potency": "active: 31.6 µM"}
{"smiles": "CC(C)NC(=O)N1CCCC2(CCN(S(=O)(=O)c3ccccc3)CC2)C1", "Potency": "inconclusive [activator, single point]"}
{"smiles": "NC(=O)c1nsc(C(=O)N(CCc2ccccc2)C(C(=O)NC2CCCC2)c2ccco2)c1N", "note": "(configuration not stated)", "Potency": "active: 6.31 µM"}
{"smiles": "O=C(OCC(=O)c1c[nH]c2ccccc12)c1ccco1", "activation": "inactive: -9.95%"}
{"smiles": "COc1ccc(CC(=O)Nc2c3c(nn2-c2cccc(C)c2C)CS(=O)C3)cc1", "note": "(configuration not stated)", "Potency": "inconclusive [activator, full curve]"}
{"smiles": "Nc1ncnc2c1nc(-c1ccccc1)n2[C@H]1O[C@@H](CO)[C@@H](O)[C@H]1O", "activation": "inactive: -3.95% [at 11.4 µM]"}
{"smiles": "O=C(CCc1nc2ccccc2c(=O)[nH]1)N1CCN(C/C=C/c2ccccc2)CC1", "Potency": "inconclusive [activator, single point]"}
{"smiles": "COc1ccc(S(=O)(=O)N2CCC(C(=O)N3CCc4ccccc4C3)CC2)cc1OC", "Potency": "inconclusive [activator, single point]"}
{"smiles": "CCOc1ccc(S(=O)(=O)N(CC(=O)Nc2cc(C)on2)Cc2ccccc2Cl)cc1", "Potency": "inconclusive [activator, partial curve, poor fit]"}
{"smiles": "Cc1cccc2cc(CN(Cc3ccco3)C(=O)N3CCCC3)c(=O)[nH]c12", "Potency": "inconclusive [activator, partial curve, poor fit]"}
{"smiles": "O=C(COC(=O)c1ccccc1Oc1ccccc1)NCc1ccco1", "Potency": "inconclusive [activator, full curve, poor fit]"}
{"smiles": "O=C(CN1CCN(S(=O)(=O)c2ccc(Br)cc2)CC1)Nc1ccc(F)cc1F", "Potency": "inconclusive [activator, single point]"}
{"smiles": "O=c1/c(=C\\c2ccc3c(c2)OCO3)sc2n1CCCN=2", "activation": "inactive: 23.9%"}
{"smiles": "COc1ccc(S(=O)(=O)N2CCCC(C(=O)NC3CCCCC3)C2)cc1", "note": "(configuration not stated)", "Potency": "inconclusive [activator, single point]"}
{"smiles": "CCOC(=O)N/N=C1/C[C@@H](O)[C@@H](O)[C@@H]2[C@@H]3C(=O)N(Cc4ccccc4)C(=O)[C@H]3CC[C@H]12", "activation": "inactive: -4.83% [at 11.4 µM]"}
{"smiles": "O=C(c1ccncc1)N1CCC2(CC1)CN(c1ncccn1)C2", "activation": "inactive: 9.43%"}
{"smiles": "Clc1cccc(Cl)c1C(Nc1nncs1)Nc1nncs1", "activation": "inactive: -5.4% [at 11.4 µM]"}
{"smiles": "COc1ccc(-c2nn(C)c3sc(C(=O)N4CCOCC4)cc23)cc1OC", "activation": "inactive: 4.28%"}
{"smiles": "CCN(CC)CCOC(=O)c1cc(Cl)c(N)cc1OC", "Potency": "inconclusive [activator, single point]"}
{"smiles": "O=c1oc2ccccc2n1CCn1c2ccccc2c2nc3ccccc3nc21", "Potency": "active: 7.94 µM"}
{"smiles": "CC1=C/C(=N/O)C([C@H]2C=C(C)CC(C)(C)[C@@H]2O)C(C)(C)C1", "note": "(some centres not stated)", "activation": "inactive: 1.95% [at 11.4 µM]"}
{"smiles": "Cc1nnc(N2C(=O)C(O)=C(C(=O)c3ccco3)C2c2ccc(F)cc2)s1", "note": "(configuration not stated)", "Potency": "inconclusive [activator, single point]"}
{"smiles": "CCN(CC)c1ccc(NC(=O)Nc2cccc(C(C)=O)c2)cc1", "activation": "inactive: -13%"}
{"smiles": "CCCN1Cc2cccc(C(=O)Nc3ccc4c(c3)OCO4)c2C1=O", "Potency": "inconclusive [activator, single point]"}
